Test results taken from the supplement of paper PMC4967469.
Lines with a small IC50 respond at low doses; fits outside the tested doses are given as limits. AUC is the area under the same curve over the 256-fold range up to the top dose, as a fraction: 1 means no effect, lower means more sensitive. For part of these data: The top dose, if marked as inferred, is not printed in the source and was worked back from the curve model.

Assays:
Assay in all cases: Viability of human cancer cell lines after 72 h of drug (GDSC screen)
[1] = compound: CC1(C)CCC(c2ccc(Cl)cc2)=C(CN2CCN(c3ccc(C(=O)NS(=O)(=O)c4ccc(N[C@H](CCN5CCOCC5)CSc5ccccc5)c(S(=O)(=O)C(F)(F)F)c4)cc3)CC2)C1 [ABT-263]; conditions: top dose 2 µM; top dose inferred
Description: (§1)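 Human cancer cell lines in 384-well plates, medium with 10% serum, drug for 72 h over a 256-fold dose range (nine 2-fold or five 4-fold steps up to the top dose). Adherent lines were fixed and stained with the nucleic acid dye Syto60, suspension lines read with resazurin; signal relative to control wells, capped at 0 and 100%. One two-parameter sigmoid per drug and line, fitted in a mixed model over all curves with the slope shared within a line.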

[2] = compound: COc1cc2ncn(-c3cc(OCc4ccccc4C(F)(F)F)c(C(N)=O)s3)c2cc1OC [GW843682X]; conditions: top dose 0.256 µM
Description: as §1

[3] = compound: CC(=O)Nc1nc(C)c(-c2ccc(Cl)c(S(=O)(=O)NCCO)c2)s1 [PIK-93]; conditions: top dose 20 µM
Description: as §1

[4] = compound: Cn1cc(/C=C2\C(=O)Nc3cccnc32)c2ccccc21 [GW 441756]; conditions: top dose 2 µM; top dose inferred
Description: as §1

[5] = compound: COc1cc(/C=C/C(=O)N2CCC=CC2=O)cc(OC)c1OC [piperlongumine]; conditions: top dose 10 µM
Description: as §1

[6] = compound: O=C(/C=C/c1ccccc1)NC(NC(=S)Nc1cccc2cccnc12)C(Cl)(Cl)Cl [Salubrinal]; conditions: top dose 16 µM; top dose inferred
Description: as §1

Cell Line	AUC [1]	IC50 [1] [µM]	AUC [2]	IC50 [2] [µM]	AUC [3]	IC50 [3] [µM]	AUC [4]	IC50 [4] [µM]	AUC [5]	IC50 [5] [µM]	AUC [6]	IC50 [6] [µM]
GDM-1 (acute myeloid leukaemia, suspension)	0.5	0.125	0.339	0.00582	0.354	0.504	0.987	> 2	0.842	6.57	0.972	> 16
GI-1 (glioma, adherent)	0.884	> 2	0.342	0.00595	0.76	6.78	0.941	> 2	0.616	1.29	0.92	> 16
GI-ME-N (neuroblastoma, adherent)	0.976	> 2	0.722	0.0869	0.558	1.9	0.967	> 2	0.571	1.05	0.81	12.4
GOTO (neuroblastoma, adherent)	0.844	1.72	0.853	0.244	0.857	19.9	0.935	> 2	0.774	4.47	0.916	> 16
GR-ST (lymphoblastic leukaemia, suspension)	0.974	> 2	0.651	0.0461	0.436	0.804	0.978	> 2	0.695	2.49	0.904	> 16
GRANTA-519 (B-cell lymphoma, suspension)	0.666	0.344	0.688	0.0505	0.891	19.1	0.583	0.205	0.826	5.26	0.967	> 16
GT3TKB (stomach, adherent)	0.981	> 2	0.405	0.00909	0.962	> 20	0.99	> 2	0.568	0.939	0.917	> 16
H9 (lymphoid neoplasm, suspension)	0.924	> 2	0.633	0.0347	0.329	0.461	0.973	> 2	0.628	1.31	0.939	> 16
HA7-RCC (kidney, adherent)	0.766	0.81	0.658	0.0461	0.784	9.45	0.856	1.89	0.778	4.48	0.837	12.3
HAL-01 (lymphoblastic leukaemia, suspension)	0.358	0.0534	0.673	0.0455	0.194	0.179	0.97	> 2	0.688	1.96	0.855	10.5
HC-1 (hairy cell leukaemia, suspension)	0.981	> 2	0.413	0.00934	0.444	0.883	0.982	> 2	0.756	3.29	0.859	12.5
HCC1187 (breast, suspension)	0.978	> 2	0.678	0.0489	0.709	4.68	0.45	0.0919	0.788	4.14	0.932	> 16
HCC2157 (breast, suspension)	0.717	0.533	0.96	> 0.256	0.953	> 20	0.872	> 2	0.763	3.77	0.933	> 16
HCC2218 (breast, suspension)	0.98	> 2	0.868	> 0.256	0.762	8.92	0.984	> 2	0.804	6.61	0.833	14.2
HD-MY-Z (Hodgkin lymphoma, adherent)	0.893	> 2	0.599	0.0299	0.705	4.75	0.943	> 2	0.654	1.67	0.882	> 16
HDLM-2 (Hodgkin lymphoma, suspension)	0.287	0.0315	0.714	0.0636	0.979	> 20	0.904	> 2	0.835	6.41	0.769	5.97
HH (T-cell leukaemia, suspension)	0.688	0.505	0.725	0.088	0.395	0.586	0.966	> 2	0.734	3.71	0.885	> 16
HL-60 (acute myeloid leukaemia, suspension)	0.398	0.0677	0.604	0.0299	0.578	1.99	0.961	> 2	0.864	7.29	0.887	14.7
HOP-62 (lung adenocarcinoma, adherent)	0.968	> 2	0.503	0.0163	0.886	> 20	0.932	> 2	0.714	2.51	0.918	> 16
HSC-39 (stomach, suspension)	0.672	0.349	0.688	0.0494	0.991	> 20	0.877	1.53	0.822	4.83	0.969	> 16
HT (B-cell lymphoma, suspension)	0.961	> 2	0.81	0.122	0.413	0.736	0.99	> 2	0.812	4.81	0.841	9.82
